{"source": "the supplement of paper PMC10126150", "note": "Sequences with one replicate were seen in a single cluster, so their values are uncertain.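 Further: ATP exposure 15 min at 22 °C before imaging.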"}
{"test_system": "ATP", "experiment": "switch fluorescence ratio, 500 uM ATP over buffer (Cy3 cluster intensity, sum of 5 cycles each) (fold (ratio)); higher = stronger signal-on switching upon ATP binding; sequences stand for … in TCGTCGGCAGCGTCAGATGTGTATAAGAGACAGTTTTTTTTTTTTTTTTTTTTTTTTT…TC", "details": "aptamer strand: ATP DNA aptamer (quencher-CACCTGGGGGAGTATTGCGGAGGAAGG + anchor), 100 nM annealed; ATP concentration: 500 uM; one replicate", "in_short": "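Between each of five buffer/ATP cycles, the flow-cell was stripped with NaOH and re-annealed. Each cycle imaged Cy3-labelled switching-strand clusters, annealed to 100 nM quencher-labelled ATP aptamer on a modified Illumina MiSeq flow-cell, first in selection buffer and then after 15 min with 500 uM ATP at 22 °C. The fluorescence ratio is summed target-cycle over summed buffer-cycle Cy3 intensity per cluster, averaged per switch-domain sequence, with clusters outside 100-1000 RFU excluded.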"}
{"sequence": "GCTAGTCTCG", "switch fluorescence ratio": 1.02}
{"sequence": "GCTAGTGCAA", "switch fluorescence ratio": 1.04}
{"sequence": "GCTAGTTTTA", "switch fluorescence ratio": 0.946}
{"sequence": "GCTATACTTG", "switch fluorescence ratio": 1.17}
{"sequence": "GCTATAGCTA", "switch fluorescence ratio": 1.01}
{"sequence": "GCTATATGC", "switch fluorescence ratio": 1.06}
{"sequence": "GCTATGGCCG", "switch fluorescence ratio": 1.04}
{"sequence": "GCTATGGGGG", "switch fluorescence ratio": 1.02}
{"sequence": "GCTATTAGCT", "switch fluorescence ratio": 1.03}
{"sequence": "GCTCAACGCA", "switch fluorescence ratio": 1.06}
{"sequence": "GCTCACAGAG", "switch fluorescence ratio": 1.02}
{"sequence": "GCTCCATGTA", "switch fluorescence ratio": 1.03}
{"sequence": "GCTCCTTGAT", "switch fluorescence ratio": 1.04}
{"sequence": "GCTCGACTGA", "switch fluorescence ratio": 0.996}
{"sequence": "GCTCGAGAGT", "switch fluorescence ratio": 1.01}
{"sequence": "GCTCGATTGT", "switch fluorescence ratio": 0.999}
{"sequence": "GCTCGCAGCA", "switch fluorescence ratio": 1.03}
{"sequence": "GCTCGCGGGG", "switch fluorescence ratio": 1.02}
{"sequence": "GCTCGCTCGC", "switch fluorescence ratio": 1.3}
{"sequence": "GCTCGCTTGA", "switch fluorescence ratio": 1.03}
{"sequence": "GCTCGGAATC", "switch fluorescence ratio": 2.13}
{"sequence": "GCTCGTCTTG", "switch fluorescence ratio": 0.956}
{"sequence": "GCTCGTTGGC", "switch fluorescence ratio": 1}
{"sequence": "GCTCTATGGG", "switch fluorescence ratio": 0.99}
{"sequence": "GCTCTATTG", "switch fluorescence ratio": 0.968}
{"sequence": "GCTCTCCTCA", "switch fluorescence ratio": 1.1}
{"sequence": "GCTCTCTAAG", "switch fluorescence ratio": 0.949}
{"sequence": "GCTCTGAACC", "switch fluorescence ratio": 1.1}
{"sequence": "GCTCTGCTAG", "switch fluorescence ratio": 1.43}
{"sequence": "GCTCTGGATG", "switch fluorescence ratio": 1.12}
{"sequence": "GCTCTTTCGG", "switch fluorescence ratio": 1.02}
{"sequence": "GCTCTTTTA", "switch fluorescence ratio": 1}
{"sequence": "GCTGAAGAGC", "switch fluorescence ratio": 1.02}
{"sequence": "GCTGACCCTG", "switch fluorescence ratio": 0.997}
{"sequence": "GCTGAGACTC", "switch fluorescence ratio": 1.06}
{"sequence": "GCTGATAGGC", "switch fluorescence ratio": 1.01}
{"sequence": "GCTGATGATC", "switch fluorescence ratio": 1.02}
{"sequence": "GCTGATGCTC", "switch fluorescence ratio": 1.09}
{"sequence": "GCTGATTGCT", "switch fluorescence ratio": 0.997}
{"sequence": "GCTGCAACTG", "switch fluorescence ratio": 1.07}
{"sequence": "GCTGCAGACA", "switch fluorescence ratio": 1.02}
{"sequence": "GCTGCTCTCG", "switch fluorescence ratio": 1.01}
{"sequence": "GCTGCTGGGA", "switch fluorescence ratio": 1.01}
{"sequence": "GCTGCTTCGA", "switch fluorescence ratio": 1}
{"sequence": "GCTGGAAGGA", "switch fluorescence ratio": 0.985}
{"sequence": "GCTGGCCGCT", "switch fluorescence ratio": 1.03}
{"sequence": "GCTGGGGGG", "switch fluorescence ratio": 1.03}
{"sequence": "GCTGGTGAA", "switch fluorescence ratio": 1.01}
{"sequence": "GCTGGTGGCG", "switch fluorescence ratio": 0.999}
{"sequence": "GCTGGTGTCG", "switch fluorescence ratio": 1}
{"sequence": "GCTGTAACAA", "switch fluorescence ratio": 0.994}
{"sequence": "GCTGTATGG", "switch fluorescence ratio": 0.949}
{"sequence": "GCTGTGTGCC", "switch fluorescence ratio": 0.975}
{"sequence": "GCTGTTCGA", "switch fluorescence ratio": 0.964}
{"sequence": "GCTTAAAGGG", "switch fluorescence ratio": 1.03}
{"sequence": "GCTTAATTAT", "switch fluorescence ratio": 0.95}
{"sequence": "GCTTACGAAC", "switch fluorescence ratio": 1.57}
{"sequence": "GCTTACGTA", "switch fluorescence ratio": 1.13}
{"sequence": "GCTTACTATT", "switch fluorescence ratio": 1.02}
{"sequence": "GCTTAGAATA", "switch fluorescence ratio": 1.01}
{"sequence": "GCTTAGAGCA", "switch fluorescence ratio": 0.993}
{"sequence": "GCTTAGGCTG", "switch fluorescence ratio": 0.948}
{"sequence": "GCTTATGGTG", "switch fluorescence ratio": 0.987}
{"sequence": "GCTTATTTTC", "switch fluorescence ratio": 0.971}
{"sequence": "GCTTCCCAGT", "switch fluorescence ratio": 1.13}
{"sequence": "GCTTCCCCTG", "switch fluorescence ratio": 2.57}
{"sequence": "GCTTCGGGAT", "switch fluorescence ratio": 1.08}
{"sequence": "GCTTCGGGGA", "switch fluorescence ratio": 1.02}
{"sequence": "GCTTCTATA", "switch fluorescence ratio": 0.99}
{"sequence": "GCTTGACCGG", "switch fluorescence ratio": 1.03}
{"sequence": "GCTTGATAAT", "switch fluorescence ratio": 1.03}
{"sequence": "GCTTGCATGG", "switch fluorescence ratio": 1.05}
{"sequence": "GCTTGCTTTC", "switch fluorescence ratio": 0.965}
{"sequence": "GCTTGGGCGC", "switch fluorescence ratio": 0.939}
{"sequence": "GCTTGTTAAG", "switch fluorescence ratio": 1.01}
{"sequence": "GCTTTAACCC", "switch fluorescence ratio": 1.01}
{"sequence": "GCTTTAGTAA", "switch fluorescence ratio": 0.983}
{"sequence": "GCTTTATGGT", "switch fluorescence ratio": 0.996}
{"sequence": "GCTTTCAAGC", "switch fluorescence ratio": 1.03}
{"sequence": "GCTTTCAATT", "switch fluorescence ratio": 1.04}
{"sequence": "GCTTTCCGTA", "switch fluorescence ratio": 0.995}
{"sequence": "GCTTTGACCG", "switch fluorescence ratio": 1.02}
{"sequence": "GCTTTGAGCG", "switch fluorescence ratio": 0.982}
{"sequence": "GCTTTGAGGC", "switch fluorescence ratio": 0.977}
{"sequence": "GCTTTGCATG", "switch fluorescence ratio": 1.01}
{"sequence": "GCTTTGCCAT", "switch fluorescence ratio": 1.01}
{"sequence": "GCTTTGGAGC", "switch fluorescence ratio": 0.998}
{"sequence": "GCTTTTCACA", "switch fluorescence ratio": 0.949}
{"sequence": "GCTTTTCGTC", "switch fluorescence ratio": 0.974}
{"sequence": "GCTTTTTCCC", "switch fluorescence ratio": 0.999}
{"sequence": "GGAAACGGGA", "switch fluorescence ratio": 1.06}
{"sequence": "GGAAAGATAC", "switch fluorescence ratio": 1.14}
{"sequence": "GGAAAGCCCG", "switch fluorescence ratio": 0.922}
{"sequence": "GGAAAGCCTG", "switch fluorescence ratio": 0.992}
{"sequence": "GGAAAGGCCG", "switch fluorescence ratio": 1.04}
{"sequence": "GGAAAGGGAC", "switch fluorescence ratio": 0.989}
{"sequence": "GGAACTGCGA", "switch fluorescence ratio": 1.08}
{"sequence": "GGAACTTCGC", "switch fluorescence ratio": 1.19}
{"sequence": "GGAAGAGCAG", "switch fluorescence ratio": 0.98}
{"sequence": "GGAAGATTCA", "switch fluorescence ratio": 0.979}
